Data: paper PMC9402713, “Structural analysis of Red1 as a conserved scaffold of the RNA-targeting MTREC/PAXT complex” (Nature Communications, 2022)
Substitutions are numbered along the chain they refer to. Numbers in names are those of the source. No constants are given. Whether binding was seen depends on the method and setting. Some entries that bind do so weakly or less than the wild type. Where a sequence is shown, tags or fusion partners need not be part of it. Values belong to the binder of their own block, whether it stands above or below them.

How the values were obtained:
Strep-Ars2 107-527 [1] = target: T1, Strep-Ars2 107-527 (S. pombe, UniProt O94326 107-527); test: ITC; 25 °C, 0.4-0.8 mM Red1 injected into 30-40 µM Ars2, 20 mM Tris pH 8.0, 100 mM NaCl, one-site model; both purified
T1 construct: vector pETM41; source: E. coli BL21Star (DE3), purified (Ni^2+ chelating Sepharose); not shown: Strep-tag, C-terminal, kept
T1 sequence (looked up): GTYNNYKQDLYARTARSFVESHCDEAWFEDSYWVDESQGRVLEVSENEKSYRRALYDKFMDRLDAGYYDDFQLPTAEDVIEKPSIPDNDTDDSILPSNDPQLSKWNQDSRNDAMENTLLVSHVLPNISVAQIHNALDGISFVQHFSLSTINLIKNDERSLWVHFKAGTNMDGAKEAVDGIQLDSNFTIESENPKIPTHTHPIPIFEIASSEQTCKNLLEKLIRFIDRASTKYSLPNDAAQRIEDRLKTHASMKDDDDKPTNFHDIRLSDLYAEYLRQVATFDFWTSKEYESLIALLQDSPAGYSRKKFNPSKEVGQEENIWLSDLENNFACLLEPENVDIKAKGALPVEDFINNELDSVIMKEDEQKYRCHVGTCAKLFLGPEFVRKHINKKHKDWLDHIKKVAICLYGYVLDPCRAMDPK

Strep-Ars2 107-527 [2] = target: T1, Strep-Ars2 107-527; test: pull-down; Strep-tag pull-down: Ni-purified Strep-Ars2 107-527 held on Strep-Tactin XT, Ni-purified His-MBP-Red1 added; 20 mM Tris pH 8, 100 mM NaCl; eluted with 50 mM D-biotin; both purified
[3] = target: T2, Strep-Ars2 107-527 F490D (S. pombe) (UniProt O94326); test: as above
T2 sequence: T1 sequence (looked up) with F384D

[4] = target: T3, Strep-Ars2 107-527 K483D (S. pombe) (UniProt O94326); test: as above
T3 sequence: T1 sequence (looked up) with K377D

- binding (Strep-Ars2 107-527 [2]): no binding
Binder: KNEEDESNDSDKRDGEISEDD (domain or fragment, UniProt Q9UTR8 20-40) [His-MBP-Red1 20-40 E32R]
- binding (Strep-Ars2 107-527 [1]): no binding (tested: 0.4–0.8 mM injected into 30–40 µM Ars2)

- binding (Strep-Ars2 107-527 [2]): binds
- binding [3]: no binding
- binding [4]: no binding
B1: His-MBP-Red1 20-40 (domain or fragment, S. pombe)
chain: KNEEDESNDSDKEDGEISEDD
notes: Red1, S. pombe, residues 20-40 with the EDGEI motif; vector pETM41; also called MBP-Red1 EDGEI motif-containing peptide; source: E. coli BL21Star (DE3), purified (Ni^2+ chelating Sepharose or amylose resin, Superdex 200)
